Data: PubChem BioAssay AID651820 (National Center for Advancing Translational Sciences (NCATS), 2012)
Hit rate of the full screen: of about 340,000 compounds, about 12,000 (3.5%) were called active. Inconclusive results, whose numbers are uncertain, are shown with a selection of clear calls. Calls come from the whole dose curve; as a rule, active = well fitted inhibition curve with a large enough effect; inconclusive = small, poorly fitted or top-dose-only effect, or another doubt; inactive = no such curve, though single readings can be large or run the other way. No potency is given beside an inconclusive call; the fits are too rough.

Assay: qHTS Assay for Inhibitors of Hepatitis C Virus (HCV)
Details: Huh7.5.1 HCVcc-Cre (HCVcc is cell-culture hepatitis C virus) infection, luciferase reporter, 44 h; series mostly up to 41.8 µM
Summary of the method: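 Compounds are dispensed onto cells plated 4 h earlier at 1,000 per well, with HCVcc-Cre virus (about 0.5 moi) added next. Following 44 h of culture, luminescent signal is measured for 15 sec after 15 min with substrate at room temperature.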
Potency is the fitted concentration of half-maximal effect; tags give direction and shape of the fitted curve.

Row | Structure (SMILES) | Potency
1 | Cc1ccnc(N=Cc2c(O)ccc3oc4c(c23)CCCC4)c1 | inactive
2 | CCN(CC)c1ccc(/C=N/NC(=O)c2cnccn2)cc1 | inactive
3 | O=c1oc2ccccc2cc1-c1ccc(O)cc1 | inconclusive [inhibitor, single point]
4 | Cc1nc2c(sc3nc(N4CCOCC4)c4c(c32)CC(C)(C)OC4)c(-c2ccc(Cl)cc2)c1C(=O)O | active: 12.6 µM
5 | CCOc1ccc(-n2c(SCC(=O)Nc3ccc4c(c3)OCCO4)nc3c(c2=O)SCC3)cc1 | inconclusive [inhibitor, single point]
6 | COC(=O)CCC(=O)OC1(C)C(=O)C=C2C=C(C3CC3)N(CCCCO)C=C2C1=O (stereo not given) | inactive
7 | Cc1cc(NC(=O)c2cnn3cccnc23)nn1CC(=O)Nc1cccnc1 | inactive
8 | Cc1c(C(=O)NCCNc2ncc(C(F)(F)F)cc2Cl)cccc1[N+](=O)[O-] | active: 11.2 µM
9 | Cc1cc(O)ccc1NC(=O)CCN1C(=O)c2ccc([N+](=O)[O-])cc2C1=O | inactive
10 | CCC(=O)Nc1nc2ccccc2n1Cc1ccccc1 | inconclusive [inhibitor, partial curve, poor fit]
11 | Cc1ccc2nc3n(c(=O)c2c1)-c1ccc(Cl)cc1C(=O)NC3Cc1ccccc1 (stereo not given) | inconclusive [inhibitor, single point]
12 | CCCn1c(C(CO)Nc2nc(-c3cccc(Br)c3)cs2)nc2ccccc21 (stereo not given) | inconclusive [inhibitor, partial curve]
13 | COc1cc(CNn2nnnc2N)cc(Br)c1OCc1c(Cl)cccc1Cl | active: 12.6 µM
14 | CCOc1ccc(CNC(=O)CCCc2cn(C)c3ccccc23)cc1 | inactive
15 | CCCNC(=O)COC(=O)c1ccc(S(=O)(=O)N2CCCCCC2)cc1 | inactive
16 | O=c1[nH]c2ccccc2cc1CN(CC1CCCO1)S(=O)(=O)c1ccc(Cl)cc1 (stereo not given) | inactive
17 | Cc1ccc(-c2csc3ncnc(SCC(=O)c4ccc5c(c4)OCCO5)c23)cc1 | inconclusive [inhibitor, single point]
18 | CC1CCC(C(C)C)C(OC(=O)Cn2c(-c3ccc(Cl)cc3)[n+](C)c3ccccc32)C1 (stereo not given) | inconclusive [inhibitor, single point]
19 | CCc1cc(-c2n[nH]c(=S)n2Cc2ccccc2)cs1 | inconclusive [inhibitor, partial curve]
20 | COc1ccc(OCc2cc(C(=O)N(Cc3nccn3C)C(C)C)no2)c2ccccc12 | inconclusive [inhibitor, single point]
21 | Cc1ccc(NS(=O)(=O)c2cccc(C(=O)NCCCn3ccnc3)c2)cc1 | inconclusive [inhibitor, full curve]
22 | C=CCc1ccc(OCCCOc2ccc(C)c(C)c2)c(OC)c1 | inactive
23 | OC(CNCCc1ccc(C(F)(F)F)cc1)COc1ccc2ccccc2c1 (stereo not given) | inconclusive [inhibitor, single point]
24 | COc1cccc(C(=O)O/N=C2\CCS(=O)(=O)c3sccc32)c1 | inactive

Row | Structure (SMILES) | Potency
25 | CC(=O)Nc1ccc(Nc2nc(C)nc3c2nnn3Cc2ccccc2Cl)cc1 | inconclusive [inhibitor, single point]
26 | Cc1ccc2cccc(OCc3ccc(Br)cc3)c2n1 | inconclusive [inhibitor, single point]
27 | CN(C)CCCN(C(=O)c1ccco1)c1nc2ccc(Cl)cc2s1 | active: 25.1 µM
28 | Cc1nc(C)c(-c2csc(NCCc3ccccc3)n2)s1 | active: 2.82 µM
29 | COc1ccc(-n2c(SCC#N)nnc2-c2ccc(NS(=O)(=O)c3ccc(C)cc3)cc2)cc1 | inconclusive [inhibitor, single point]
30 | Cc1cccc(N2CCN(C(=O)CN3C(=O)NC4(CCCCCC4)C3=O)CC2)c1C | inconclusive [inhibitor, partial curve]
31 | Cc1cc(Br)c(NC(=O)CN2CCCC2)c(Br)c1 | inconclusive [inhibitor, single point]
32 | O=C(N/N=C/c1ccc(OC(=O)c2ccccc2)cc1)c1cccnc1 | inconclusive [inhibitor, single point]
33 | COc1ccc(C2(c3ccc(OC)cc3)NC(=O)N(CC(=O)Nc3ccccc3)C2=O)cc1 | inconclusive [inhibitor, single point]
34 | COc1ccc(OC)c(CNC(=O)C2CCCN(S(=O)(=O)N3CC(C)CC(C)C3)C2)c1 (stereo not given) | inconclusive [inhibitor, single point]
35 | Cc1c(Br)ccc(NC(=O)CCN2C(=O)C3C4CCC(C4)C3C2=O)c1C (stereo not given) | inactive
36 | Cc1cccc(-n2c(-c3ccc([N+](=O)[O-])cc3)nc3ccccc3c2=O)c1 | inactive
37 | Cc1c(N2C(=O)/C(=C/c3ccccc3)SC2=S)c(=O)n(-c2ccccc2)n1C | inactive
38 | COc1ccc(/C=C/C(=O)NNc2cc(=O)n(C)c(=O)n2C)cc1OC | inactive
39 | CC(C)OC(=O)c1ccccc1C(=O)c1ccc(N)c([N+](=O)[O-])c1 | inactive
40 | O=S(=O)(c1cnc(Cl)c(Br)c1)N1CCCCCC1 | inconclusive [inhibitor, single point]
41 | CCCCNS(=O)(=O)c1cc(-c2nn(C)c(=O)c3ccccc23)ccc1C | inconclusive [inhibitor, single point]
42 | CNC(=S)N(CCc1c(C)[nH]c2ccc(C)cc12)Cc1ccco1 | inconclusive [inhibitor, partial curve]
43 | N#Cc1cn(N2CCCCC2)c(=O)[nH]c1=O | inactive
44 | Cc1cc(C)c(C(=O)NC2CCCc3c2cnn3-c2cccc(C)c2C)o1 (stereo not given) | inconclusive [inhibitor, single point]
45 | COC(=O)[C@H](CC(C)C)NC(=O)c1cc2c(cn1)[nH]c1ccccc12 | inconclusive [inhibitor, single point]
46 | Fc1cccc(Nc2ncnc3sccc23)c1 | inconclusive [inhibitor, single point]
47 | CSc1ccc(CCNC(=O)CCc2nnc3ccc(N4CCCCC4)nn23)cc1 | inconclusive [inhibitor, partial curve]
48 | Cc1cc2c(cc(C(=O)OCC(=O)NCc3cccs3)n2C(C)C)o1 | inconclusive [inhibitor, partial curve]

Row | Structure (SMILES) | Potency
49 | Cc1ccc(C)n1-c1cccc(C(=O)Nc2ccccc2)c1 | inconclusive [inhibitor, single point]
50 | Cc1cccc(C(=O)Nc2cc(C)ccc2NC(=O)COc2ccccc2)c1 | inconclusive [inhibitor, single point]
51 | Cc1cc(OCC(=O)Nc2ccc(S(=O)(=O)N3CCN(C)CC3)cc2)ccc1Br | inconclusive [inhibitor, partial curve]
52 | CCOC(=O)c1c(C2CC2)csc1NC(C)=O | inconclusive [inhibitor, single point]
53 | CC(=O)CCC(=O)NC1CCCc2c1cnn2-c1ccc(C(C)(C)C)cc1 (stereo not given) | inconclusive [inhibitor, single point]
54 | COc1ccc(N(CC(=O)N2CCCCCC2)S(C)(=O)=O)cc1Cl | inactive
55 | C=CCN(CC=C)Cc1c(O)ccc2c1oc(=O)c1ccccc12 | inconclusive [inhibitor, single point]
56 | COc1ccc(CCNC(=O)CN2CCC(n3nnc4cc(F)ccc43)CC2)cc1OC | inconclusive [inhibitor, partial curve]
57 | O=C(c1ccco1)n1nc(-c2ccc(Cl)cc2)nc1NCc1ccco1 | inconclusive [inhibitor, single point]
58 | O=C(C[C@H]1C[C@H](C(=O)N2CCOCC2)[C@@]2(CCC3CCCC3)c3[nH]c4cc(-c5ccco5)ccc4c3CCN2C1=O)NCCC1=CCCCC1 | inconclusive [inhibitor, single point]
59 | Nc1nc(SCc2ccccc2)c2ncn(Cc3ccccc3)c2n1 | inconclusive [inhibitor, single point]
60 | Cc1ccccc1OCC(=O)Nc1cccc(C(=O)O)c1 | inactive
61 | CCOc1ccc2nc(SCC(=O)N3c4ccccc4Sc4ccccc43)c(C#N)cc2c1 | inconclusive [inhibitor, full curve]
62 | COc1cc2c(cc1NC(=O)Nc1ccc(F)cc1)oc1ccccc12 | inconclusive [inhibitor, partial curve, poor fit]
63 | COc1ccc(-c2cc(C)nc3c(-c4ccccc4)cnn23)cc1 | active: 11.2 µM
64 | O=S(=O)(c1ccc(-c2csc(Nc3ccc(Br)cc3)n2)cc1)N1CCCC1 | inconclusive [inhibitor, single point]
65 | O=[N+]([O-])c1ccc2c(c1)S(=O)c1ccccc1-2 (stereo not given) | inactive
66 | COc1ccc(CNS(=O)(=O)c2ccc3c(c2)CCN3C(=O)C2CCC2)cc1 | inconclusive [inhibitor, single point]
67 | C=CCn1c(SCC(=O)c2[nH]c(C)c(C(=O)OC)c2C)nc2scc(-c3ccc(OC)c(OC)c3)c2c1=O | inconclusive [inhibitor, partial curve]
68 | O=C(NNc1ccccc1)Nc1cc(Cl)ccc1Cl | inconclusive [inhibitor, single point]
69 | O=C1CCc2cc(Br)ccc2O1 | inactive
70 | CCCCn1c(=O)c(C(=O)NCc2ccccc2Cl)c(O)c2ccccc21 | inconclusive [inhibitor, partial curve]
